# From patent publication US20180334496A1 (KODIAK SCIENCES, published 2018)
# B1: recombinant human CFDS183A (enzyme)
# chain: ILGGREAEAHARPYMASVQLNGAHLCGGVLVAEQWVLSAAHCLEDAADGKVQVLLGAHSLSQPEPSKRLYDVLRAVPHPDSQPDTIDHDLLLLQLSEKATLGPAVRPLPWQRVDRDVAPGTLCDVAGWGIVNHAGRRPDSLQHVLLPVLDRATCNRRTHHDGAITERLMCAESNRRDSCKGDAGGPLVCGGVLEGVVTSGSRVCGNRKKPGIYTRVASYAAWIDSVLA
# notes: also called catalytically dead mutant of CFD
# Target: T1, complement Factor B (UniProt P00751 26-764)
# T1 construct: also called CFB; FB
# T1 sequence (looked up): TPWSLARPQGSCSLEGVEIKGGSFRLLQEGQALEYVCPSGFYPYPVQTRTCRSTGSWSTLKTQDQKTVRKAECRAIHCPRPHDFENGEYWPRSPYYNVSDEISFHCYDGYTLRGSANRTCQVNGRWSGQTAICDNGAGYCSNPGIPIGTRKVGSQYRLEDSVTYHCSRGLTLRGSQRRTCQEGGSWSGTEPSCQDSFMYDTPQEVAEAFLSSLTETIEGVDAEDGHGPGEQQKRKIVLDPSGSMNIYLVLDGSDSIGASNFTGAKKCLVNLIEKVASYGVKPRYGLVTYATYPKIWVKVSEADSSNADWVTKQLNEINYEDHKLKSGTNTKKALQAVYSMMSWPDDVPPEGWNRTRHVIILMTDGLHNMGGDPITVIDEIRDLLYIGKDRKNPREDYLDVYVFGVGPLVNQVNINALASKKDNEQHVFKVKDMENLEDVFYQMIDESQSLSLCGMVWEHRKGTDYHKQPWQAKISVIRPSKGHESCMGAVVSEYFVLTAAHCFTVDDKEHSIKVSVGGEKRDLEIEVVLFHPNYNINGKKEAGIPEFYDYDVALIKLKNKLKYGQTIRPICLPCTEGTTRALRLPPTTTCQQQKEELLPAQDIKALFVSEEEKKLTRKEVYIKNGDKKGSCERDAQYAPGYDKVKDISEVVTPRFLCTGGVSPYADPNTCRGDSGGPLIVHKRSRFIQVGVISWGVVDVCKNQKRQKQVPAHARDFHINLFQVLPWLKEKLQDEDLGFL
# Assay: SPR complex assembly assay
binder,measurement,value
B1,binding result,binds
